# According to the supplement of paper PMC3334620:
# Whole data set: some 33,000 sequences, median “E-score (-0.5 to 0.5)” near -0.012, cut for the highest 2% near 0.29. Some of the results follow.
# Biological target: T1, Ybr033w (UniProt P38073)
# T1 sequence: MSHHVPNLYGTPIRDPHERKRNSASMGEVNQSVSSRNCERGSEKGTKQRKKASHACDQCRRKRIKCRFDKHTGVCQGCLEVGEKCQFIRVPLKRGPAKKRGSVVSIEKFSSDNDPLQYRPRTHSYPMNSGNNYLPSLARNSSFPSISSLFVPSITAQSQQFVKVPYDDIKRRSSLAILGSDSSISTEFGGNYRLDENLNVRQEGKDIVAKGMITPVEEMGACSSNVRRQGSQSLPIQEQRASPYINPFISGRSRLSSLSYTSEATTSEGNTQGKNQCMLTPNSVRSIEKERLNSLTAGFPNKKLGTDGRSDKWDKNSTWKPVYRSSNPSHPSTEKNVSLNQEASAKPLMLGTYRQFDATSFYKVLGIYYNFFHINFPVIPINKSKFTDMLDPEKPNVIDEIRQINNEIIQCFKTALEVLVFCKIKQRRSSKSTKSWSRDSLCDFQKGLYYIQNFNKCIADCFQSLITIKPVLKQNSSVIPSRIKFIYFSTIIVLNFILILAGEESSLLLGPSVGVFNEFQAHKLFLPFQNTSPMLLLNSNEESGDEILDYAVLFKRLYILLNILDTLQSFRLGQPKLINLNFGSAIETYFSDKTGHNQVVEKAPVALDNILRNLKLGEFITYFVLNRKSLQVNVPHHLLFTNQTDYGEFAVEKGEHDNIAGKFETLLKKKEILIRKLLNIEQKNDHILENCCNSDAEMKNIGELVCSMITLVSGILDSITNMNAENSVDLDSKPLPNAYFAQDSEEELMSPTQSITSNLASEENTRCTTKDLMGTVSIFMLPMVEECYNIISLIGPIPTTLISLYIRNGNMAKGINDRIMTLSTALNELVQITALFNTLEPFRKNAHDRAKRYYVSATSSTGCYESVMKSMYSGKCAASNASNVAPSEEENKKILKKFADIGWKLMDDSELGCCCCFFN
# Experiment: PBM E-score (8-mer binding enrichment) (E-score (-0.5 to 0.5)); higher = stronger / more preferred TF binding; most listed sequences are background and not binding sites
# Conditions: protein concentration: 200 nM; construct: GST-full length
# In short: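 PURExpress in vitro transcription/translation supplied GST-tagged yeast transcription factors, either full-length or DNA-binding domain. Applied at about 100-200 nM to universal all-10-mer Agilent arrays double-stranded by primer extension, the bound protein was detected with fluorescent anti-GST. E-scores, modified Wilcoxon-Mann-Whitney statistics, were given by the Universal PBM Analysis Suite to ungapped eight-base words pooled with their reverse complements after masliner normalisation.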
row,Sequence,PBM E-score
1,GATATAGC,0.156
2,ATCATTCG,0.119
3,TACCAGCA,0.08
4,CACCATAA,0.123
5,GGGAGCAC,-0.195
6,GTATTTTA,0.23
7,GTCTAGGA,0.0443
8,AGGTGTGG,-0.277
9,ACCTGTGA,0.102
10,AGATGGCG,0.17
11,ATAAGTCA,0.265
12,TCTGAGAA,0.0455
13,ACTTATAA,0.305
14,CAAGCCCG,-0.186
15,ATCGCGAG,0.0733
16,AGTAGCAG,0.0821
17,GATTGTAC,0.0766
18,CCAATACA,0.0951
19,GAAGTTAC,0.236
20,TCATGAGA,0.0183
21,CATGACGA,-0.0691
22,CAAAGGAG,-0.0306
23,AAACGTGT,-0.0456
24,ATAAAGAG,0.169
25,GACGGCCA,-0.184

row,Sequence,PBM E-score
1,GCGCCGTA,-0.0822
2,CACTGATG,-0.0895
3,CCCTGCCC,-0.376
4,GCTTTGTA,0.192
5,ATTGCATG,0.125
6,CAAGCCGC,-0.159
7,ACTTTGAG,0.0497
8,AACGATCC,-0.0104
9,AGTAAATG,0.198
10,ACGGTACA,0.029
11,ATCCCGTC,-0.0397
12,CAGTCCTC,-0.256
13,AAGGGGGT,-0.316
14,AATGGTCG,0.0305
15,CCGTTTCC,-0.0353
16,CGTCCCTC,-0.217
17,AAGTGGCT,-0.014
18,GCAGACTA,-0.0945
19,CCGAAAGC,-0.223
20,TAACGTGA,-0.0631
21,GGGATGGA,-0.308
22,CATGTTCG,-0.0241
23,CGAAAAAA,0.213
24,ACGCTGCG,-0.106
25,CTTACCTC,-0.232

row,Sequence,PBM E-score
1,ATCCCAGC,-0.0249
2,TCAGAGGA,-0.185
3,CGCTGCAG,-0.12
4,CAAGGCCG,-0.0978
5,AAGTAGTC,0.0604
6,GATGTTAC,0.153
7,GGCATAGA,0.00074
8,AGCCACTC,-0.275
9,GGACTTAA,-0.133
10,AAAGTTCG,0.0769
11,CGAACCAA,0.161
12,CCCGCGAG,-0.162
13,AAAATCAC,0.285
14,AGTCAAGA,-0.0169
15,AAGGTGAA,-0.0947
16,GTAGAAAC,0.106
17,AACCGTAG,-0.218
18,AAAATTTT,0.293
19,ATTTGCTA,0.177
20,TCCCAACA,-0.0027
21,CGCTCAAG,-0.115
22,CCTCAACA,0.0703
23,ACCCAGTC,-0.178
24,CGAAGCAA,0.0447
25,CAGTTCCA,0.0467

row,Sequence,PBM E-score
1,CACACTGC,-0.138
2,AGTCCTAT,0.145
3,ATGTGCCA,-0.0592
4,AATTACAG,0.225
5,CCTATCCC,-0.138
6,CTTAAAGC,-0.0103
7,CCACTGGA,-0.0583
8,ATCCTGAG,0.0527
9,AACGTGAT,0.0757
10,CCGATTGA,-0.0131
11,CCATGGCG,-0.104
12,CCAAAATC,0.11
13,AGACGCCC,-0.179
14,GCGCCACA,-0.0765
15,AAATTTTA,0.171
16,CTTCACGC,0.0228
17,CTCCCGAA,-0.125
18,ATCCACTA,0.122
19,CACAGTGC,-0.0524
20,AAAATGCA,0.0946
21,AACTCAGA,0.0822
22,CCTTTCCG,-0.152
23,GCATATCA,0.138
24,GCCTTTCC,-0.254
25,GGAAACCC,0.0664

row,Sequence,PBM E-score
1,AAACCAAT,0.272
2,GCGTTAAA,0.0229
3,CAACATGA,0.137
4,CAGCTAAA,0.17
5,GGGGAGAC,-0.311
6,AACGTATT,0.0826
7,AGCAGTAT,0.0236
8,ACTCAAGG,-0.154
9,GTACAAAA,0.167
10,TACCCCGA,-0.0991
11,CAACGTTC,-0.0163
12,ATTTCACC,0.158
13,CTTTCCTA,0.0109
14,AGGTTGGA,0.179
15,CTGTTGAA,0.211
16,ATCGTGTG,0.0723
17,ATTTTGGC,0.145
18,ACAGGCCA,-0.226
19,ACTTTAAC,0.0287
20,ACTGGTTA,0.0889
21,CGTCAATC,0.0124
22,CAGTTGTA,-0.00378
23,ATATCCCA,0.156
24,AGAAGTAG,0.00438
25,GATTGCGC,0.134

row,Sequence,PBM E-score
1,TCAGTCAA,-0.0701
2,ACAGCCAA,-0.0314
3,GGCGACAA,-0.263
4,CGCGGAAC,0.0781
5,CAGGGCGC,-0.163
6,AGTGTAAG,0.0687
7,CCCTAAGG,-0.21
8,ACAAGGGC,-0.276
9,AGCGGAGA,0.0585
10,ACTATATC,0.229
11,GTCGGATA,0.168
12,CGAGGCCA,-0.183
13,ATGGAGAG,-0.12
14,CATAGCTA,-0.246
15,AATCTCCT,0.0894
16,AGGCGACG,-0.072
17,GGGGACCC,-0.247
18,CCCGTGAC,-0.262
19,AACCATCA,0.148
20,ATTCATAC,0.184
21,ATGCAAAT,0.0849
22,ATGAGTGC,0.0844
23,CTAAAAAA,0.267
24,ACAACAGG,0.104
25,GATTTTAA,0.122

row,Sequence,PBM E-score
1,AAAATCAG,0.188
2,CTCTTATC,0.209
3,CTTATCAA,0.214
4,ATGGATTG,0.263
5,CAAGGTAA,0.0861
6,AGTACTAC,0.229
7,GCTCTACA,-0.0497
8,GGCTGGCA,-0.324
9,AGAGAAGC,0.0136
10,ACGATTGG,0.00198
11,CCATCTCG,-0.179
12,CTGGTGTA,-0.186
13,ATGCCTTC,-0.0958
14,AGGGAGCG,-0.132
15,AGCGGTTA,-0.056
16,CATACCGG,-0.102
17,ATATTCAT,0.226
18,CCGTTGAC,-0.185
19,ACCGTCTC,0.0143
20,ACACCTAC,-0.0252
21,ACCGACCA,0.0105
22,ATCAAGGA,0.0684
